From PubChem BioAssay AID686979 (National Center for Advancing Translational Sciences (NCATS), 2013)
Where “and” joins values, the source holds several entries; their conditions need not be identical. Equal values may be shown once. Hit rate of the full screen: of about 420,000 compounds, about 50,000 (12%) were called active. Inconclusive means that the source gave no clear call. Such entries were picked first, then a sample of the others. Calls follow the shape of the dose curve; as a rule, active = well fitted inhibition curve with a large enough effect; inconclusive = small, poorly fitted or top-dose-only effect; inactive = flat fitted curve, though single readings scatter. Potencies beside an inconclusive call are fits to weak or partial responses and may not hold up.

Experiment: qHTS for Inhibitors of human tyrosyl-DNA phosphodiesterase 1 (TDP1): qHTS in cells in presence of CPT; also: nearly all actives have a fitted effect of over 55% in size
Conditions: chicken DT40 Tdp1-/-;hTDP1 cells + 20 nM CPT, ATP luminescence, 48 h; activity change, negative = growth inhibition: at 46.2 µM (top of the series) unless noted
Procedure, shortened: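 Chicken DT40 Tdp1-/- cells stably complemented with human TDP1 were seeded at 400 cells/well in medium containing 20 nM camptothecin, exposed to pin-transferred compounds, and grown at 37 °C for at least 48 hr. Viability was read as ATP luminescence.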
% is scaled to controls: 0 for no effect and ±100 for the full control effect; potency is read from the fitted curve at half-maximal effect; tags tell the direction and shape of the fitted curve.

Row | Compound | Potency | activity change, negative = growth inhibition
1 | NC(=O)c1cccc(-c2ccnc3c2CC(C(=O)Nc2ccc(Cl)cc2)O3)c1 (stereo unspecified) | active: 23.1 µM | 
2 | Cc1cccc(NC(=O)NCCCCc2ccccc2)c1 |  | inactive: -20.7%
3 | O=S(=O)(NCC(c1ccco1)N1CCN(c2ccc(F)cc2)CC1)c1ccc(F)cc1 (stereo unspecified) | active: 23.1 µM | 
4 | Cc1cccc(CSc2nnc(C)c(=O)n2N)c1 |  | inactive: -24.4%
5 | Cc1ccc(C2=CC(C)(c3ccc(C)cc3)Nc3nc(C(F)(F)F)nn32)cc1 (stereo unspecified) | inconclusive: 25.9 µM [inhibitor, single point] | 
6 | Cc1noc(C)c1C(=O)OCC(=O)Nc1ccc(S(N)(=O)=O)cc1 |  | inactive: -1.44%
7 | COc1ccc(CCNC(=O)Nc2nc(C(N)C3CCCCC3)cs2)cc1OC (stereo unspecified) | inconclusive: 29.1 µM [inhibitor, single point] | 
8 | CCN(CC)C(=O)C1=C(C)Nc2nc3ccccc3n2C1c1ccc(Cl)cc1 (stereo unspecified) | inconclusive: 16.4 µM [inhibitor, partial curve] | 
9 | CC(CCc1ccccc1)NC(=O)c1cccs1 (stereo unspecified) |  | inactive: -24.1%
10 | Cc1ncc(C[n+]2csc(CCOC(=O)C34CC5CC(CC(C5)C3)C4)c2C)c(N)n1 | inconclusive: 29.1 µM [inhibitor, single point] | 
11 | O=C(CBr)c1ccc(Oc2ccc(C(=O)C[n+]3ccccc3Cl)cc2)cc1 | inconclusive: 11.2 µM [inhibitor, partial curve] | 
12 | CCOC(=O)c1c(NC(C)=O)sc2c(OCC(O)CN(CC)CC)c(Br)ccc12 (stereo unspecified) | inconclusive: 29.1 µM [inhibitor, single point] | 
13 | COc1cccc(C2=NCCc3cc4c(cc32)OCO4)c1OC |  | inactive: -3.01%
14 | Cc1ccccc1NC(=O)c1ccc(CNS(=O)(=O)c2ccc3c(c2)C(C)(C)C(=O)N3C)cc1 | inconclusive: 16.4 µM [inhibitor, single point] | 
15 | O=C(NCc1ccccn1)c1nn(-c2ccccc2Cl)nc1CO |  | inactive: -10.1%
16 | Cc1ccc(C)c2sc(N3CCN(C(=O)c4ccc([N+](=O)[O-])o4)CC3)nc12 | active: 8.2 µM | 
17 | Cc1cc(C(=O)CSc2nnc(C3COc4ccccc4O3)n2C)c(C)n1-c1ccc(F)cc1 (stereo unspecified) | inconclusive: 23.1 µM [inhibitor, single point] | 
18 | CS(=O)(=O)N(CC(=O)NC1CCCC1)c1ccc(Oc2ccccc2)cc1 | inconclusive: 14.6 µM [inhibitor, single point] | 
19 | CCCCOc1ccc(C(=O)NCCc2csc3nc(-c4ccccc4F)nn23)cc1 | active: 25.9 µM | 
20 | O=C(OCCCOC(=O)c1ccc([N+](=O)[O-])o1)c1ccc([N+](=O)[O-])o1 | inconclusive: 20.6 µM [inhibitor, single point] | 
21 | O=C(N/N=C/C=C\c1ccco1)c1cccs1 | inconclusive: 25.9 µM [inhibitor, single point] | 
22 | CC(=O)c1cccc(NC(=O)CSc2nc(=O)n(Cc3ccccn3)c3c2CCC3)c1 |  | inactive: -29.1%
23 | COc1ccc(C2(CNC(=O)c3ccccc3)CCCC2)cc1OC |  | inactive: -47%
24 | CNC(=O)c1[nH]cnc1C(=O)N[C@@H](Cc1ccccc1)C(=O)OC(C)(C)C | inconclusive: 29.1 µM [inhibitor, single point] | 

Row | Compound | Potency | activity change, negative = growth inhibition
25 | COc1ccc(NC(=O)COC(=O)c2ccc(S(=O)(=O)N3CCCCCC3)cc2)c(OC)c1 |  | inactive: 8.13%
26 | OC(c1ccc2c(c1)OCO2)c1ncc(-c2ccc(Cl)cc2)[nH]1 (stereo unspecified) | inconclusive: 14.6 µM [inhibitor, single point] | 
27 | COCCn1c(C)cc(C2=NNC(=Nc3ccc(F)cc3)SC2)c1C | inconclusive: 29.1 µM [inhibitor, single point] | 
28 | CC(=O)OC/C=C(C)/C=C/C=C(C)/C=C/C1=C(C)CCCC1(C)C | inconclusive: 29.9 µM [inhibitor, single point] and inconclusive: 29.1 µM [inhibitor, single point] | 
29 | CCCCCCNc1c([N+](=O)[O-])c(=O)sc2ccccc12 | inconclusive: 8.2 µM [inhibitor, partial curve] | 
30 | C=C(C1=CCN(S(=O)(=O)C(C)(C)C)[C@H]1CCO)c1ccccc1 | inconclusive: 23.1 µM [inhibitor, single point] | 
31 | CCOc1ccccc1C(=O)NCC(c1ccc(N(C)C)cc1)N1CCCC1 (stereo unspecified) | active: 20.6 µM | 
32 | O=S(=O)(c1ccc(NC(=S)NN=C2CCCCC2)cc1)N1CCOCC1 |  | inactive: 6.75%
33 | CCn1c(-c2ccc(-c3ccccc3)cc2)c[nH]c1=S | inconclusive: 29.1 µM [inhibitor, single point] | 
34 | C=CCn1c(SCC(=O)Nc2cc(Cl)ccc2C(=O)O)nc2sc(C)c(C)c2c1=O |  | inactive: -12%
35 | CC1(C)COC(Cn2c3ccccc3c3ccccc32)O1 (stereo unspecified) | inconclusive: 18.4 µM [inhibitor, single point] | 
36 | COc1ccc(-n2nc(C(=O)Nc3ccc4c(c3)OCO4)c3ccccc3c2=O)cc1 | inconclusive: 23.1 µM [inhibitor, single point] | 
37 | CCCCN(CCCC)Cc1ccc(C(=O)NNC(=O)Nc2ccccc2)o1 |  | inactive: -5.74%
38 | CCOC(=S)SCC(=O)Nc1nc(-c2ccc(Br)cc2)cs1 | active: 4.61 µM | 
39 | CCOc1nc(-c2ccc(OC)cc2)ccc1-c1noc(-c2cc(OC)c(OC)c(OC)c2)n1 | active: 5.17 µM | 
40 | CCC(=O)OC(OP(=O)(CCCCc1ccccc1)CC(=O)N1C[C@H](C2CCCCC2)C[C@H]1C(=O)O)C(C)C (stereo partly specified) |  | inactive: 8.12%
41 | CCn1c(CN2CCN(C)CC2)nc2cc(NC(=O)c3cc(OC)c(OC)c(OC)c3)ccc21 |  | inactive: -21.4%
42 | COc1cccc(Nc2ccc(-n3ccnc3)nn2)c1 |  | inactive: 14.1%
43 | CC(C)(C)c1ccc(C(=O)NNC(=O)CNC(=O)c2cccs2)cc1 |  | inactive: 2.05%
44 | Clc1ccc2c(c1)N=C(N1CCNCC1)c1ccccc1N2 | active: 18.8 µM and active: 13 µM | 
45 | CSc1ccc(CCNC(=O)c2ccc3c(c2)c(C)c(C)n3Cc2ccc(F)cc2)cc1 | inconclusive: 20.6 µM [inhibitor, single point] | 
46 | CCCOc1ccc(C(=O)Nc2ccc(S(=O)(=O)N3CCN(C)CC3)cc2)cc1 | inconclusive: 25.9 µM [inhibitor, single point] | 
47 | O=C(CSc1nc(-c2ccco2)cc(C(F)(F)F)n1)Nc1ccc2c(c1)CCC2 | inconclusive: 18.4 µM [inhibitor, single point] | 
48 | Clc1cc(Sc2ccc(Br)cc2)nnc1-c1ccccc1 | inconclusive: 29.1 µM [inhibitor, single point] | 

Row | Compound | Potency | activity change, negative = growth inhibition
49 | COc1ccc(CN(CCC(c2ccco2)C(C)C)C(C)=O)cc1OC (stereo unspecified) | inconclusive: 29.1 µM [inhibitor, single point] | 
50 | COC(=O)c1cc(NC(=O)c2ccc(F)cc2)cc(C(=O)OC)c1 |  | inactive: 0.453%
51 | N#Cc1ccc(CN2CC[C@@]3(CCCN(S(=O)(=O)c4ccccc4)C3)C2)cc1 | inconclusive: 29.1 µM [inhibitor, single point] | 
52 | COc1ccc(CCNC(=O)c2cc3cc(Cl)ccc3nc2N)cc1OC | active: 13 µM | 
53 | CCOC(=O)c1cnc(-n2nc(C)cc2C)nc1N(C)C | inconclusive: 29.1 µM [inhibitor, single point] | 
54 | COC(=O)Cc1ccc(NC(=O)c2ccc(C(C)(C)C)cc2)cc1 | inconclusive: 29.1 µM [inhibitor, single point] | 
55 | COC(=O)C1=CN(Cc2ccc(F)cc2)C=C(C(=O)OC)C1c1cc(OC)c(OC)c(OC)c1 |  | inactive: -4.57%
56 | Cc1cc(C)n(-c2ccc(C(=O)OCC(=O)Nc3ccc([N+](=O)[O-])cc3)cc2)n1 |  | inactive: 0.276%
57 | Cc1cc(C)n(-c2ccc(C(=O)N3CCN(S(=O)(=O)c4ccc(Cl)cc4)CC3)cc2)n1 | inconclusive: 7.31 µM [inhibitor, partial curve] | 
58 | NC(=O)CC(NC(=O)c1ccccc1)c1ccc(NCCCN2CCCC2=O)c([N+](=O)[O-])c1 (stereo unspecified) |  | inactive: -8.27%
59 | CCN(c1cccc(C(F)(F)F)c1)S(=O)(=O)c1ccc2c(c1)CCN2C(C)=O | inconclusive: 29.1 µM [inhibitor, single point] | 
60 | COc1ccc(N2CCN(CC(=O)NCc3ccc(Cl)cc3)CC2)cc1 | inconclusive: 20.6 µM [inhibitor, partial curve] | 
61 | Cc1ccc([C@@H]2C3COCC=C3C(C#N)=C(N)C2(C#N)C#N)o1 (stereo partly specified) | inconclusive: 17.8 µM [inhibitor, single point] | 
62 | O=C(CN1CCN(S(=O)(=O)N2CCOCC2)CC1)Nc1ccc(Cl)c(Cl)c1 | inconclusive: 29.1 µM [inhibitor, single point] | 
63 | Cc1ccc(S(=O)(=O)N2CCN(c3ccnc4cc(Cl)ccc34)CC2)cc1C | inconclusive: 4.11 µM [inhibitor, partial curve] | 
64 | COc1ccc(C2=CC(=O)C[C@H](c3ccc(OC)c(OC)c3)C2)cc1 | active: 13 µM | 
65 | CN(C)c1ccc(NC(=S)N(CCc2ccccc2)C2CC(=O)N(c3c(Cl)cccc3Cl)C2=O)cc1 (stereo unspecified) | inconclusive: 14.6 µM [inhibitor, partial curve] | 
66 | O=C(CSc1nc2cc([N+](=O)[O-])ccc2n1-c1ccccc1)NCc1ccc2c(c1)OCO2 | active: 14.6 µM | 
67 | CCOC(=O)CN1C(=O)S/C(=C\c2ccc(-c3cccc(C(=O)O)c3C)o2)C1=O |  | inactive: -0.709%
68 | Nc1cc(=O)[nH]c(SCc2ccccc2)n1 |  | inactive: 18.8%
69 | CC(=O)c1ccc(N2CCN(CC(=O)Nc3ccccc3C(=O)NC3CC3)CC2)c(F)c1 | inconclusive: 23.1 µM [inhibitor, single point] | 
70 | CCOC(=O)c1cccc(NC(=O)C2CCN(S(=O)(=O)c3cccs3)CC2)c1 | inconclusive: 16.4 µM [inhibitor, single point] | 
71 | CC1(C(=O)Nc2ccc3nc[nH]c3c2)CCN1C(=O)Cc1ccc(-c2ccccc2)cc1 (stereo unspecified) | inconclusive: 29.1 µM [inhibitor, single point] | 
